{"source": "paper PMC6501163", "about": "“Icariin Inhibits AGE-Induced Injury in PC12 Cells by Directly Targeting Apoptosis Regulator Bax” (Oxidative Medicine and Cellular Longevity, 2019)", "proteins": {"B1": {"name": "apoptosis regulator Bax (natural protein)", "chain": "not shown", "notes": "Apoptosis regulator Bax, endogenous in rat PC12 pheochromocytoma cells; monomer band around 21 kDa; Detected by western blot with an anti-Bax antibody after DSS cross-linking of the cell lysate; source: endogenous, PC12 lysate (NP40 buffer)"}}, "target": "the molecule itself", "experiment": "cross-linking; PC12 cells stimulated with AGEs (300 ug/mL); lysed with NP40 buffer; 1 mM disuccinimidyl suberate in 20 mM HEPES, 100 mM KCl, 1 mM dithiothreitol, pH 8.0, 1 h at room temperature; western blot for Bax (monomer around 21 kDa, dimer around 42 kDa)", "data": [{"protein": "B1", "values": [{"measurement": "stoichiometry N", "result": 2}]}]}
